Test results published in the supplement of paper PMC12632987.
Whole data set: some 1,800 sequences, median “median log2 fold change of GCK-ALFA target abundance (FLAG IP / Myc IP barcode read proportion)” near 0.14, cut for the lowest 2% near -0.84. Some of the results follow.

T1: TRAF2, Q12933
T1 chain: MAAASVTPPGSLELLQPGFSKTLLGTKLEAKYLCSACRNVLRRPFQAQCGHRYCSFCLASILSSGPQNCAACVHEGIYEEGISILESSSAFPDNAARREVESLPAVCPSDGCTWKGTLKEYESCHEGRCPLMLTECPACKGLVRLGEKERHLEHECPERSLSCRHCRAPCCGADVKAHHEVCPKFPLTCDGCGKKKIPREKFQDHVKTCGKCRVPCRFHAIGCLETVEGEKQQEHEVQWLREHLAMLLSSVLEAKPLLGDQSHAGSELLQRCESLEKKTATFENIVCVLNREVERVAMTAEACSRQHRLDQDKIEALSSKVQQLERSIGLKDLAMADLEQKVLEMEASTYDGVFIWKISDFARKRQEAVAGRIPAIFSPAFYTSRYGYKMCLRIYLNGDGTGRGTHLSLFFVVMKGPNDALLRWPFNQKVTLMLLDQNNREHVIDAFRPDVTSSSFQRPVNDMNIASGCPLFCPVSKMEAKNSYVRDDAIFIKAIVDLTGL

B1: traf2_out_20_38_2043 (protein)
chain: SEEEEERRRLEEDVKIANEALDEVEAEFAELKAAGKSLAEIAAWAKARVRELFAEAGLEELVPEYLADIDTVADSPDAERLITRILARALARVRRAKAKK
B2: traf2_out_20_3_2176 (protein)
chain: EELEKELEKELEKAEKLIKEAAKLADEETAKKLKELIERLKKSRELSYEDQLVVLSEIRRELLEMAEKARAEGKEELAKVLEEAADAINKAMNLVYKIIE
B3: traf2_out_18_167_1842 (protein)
chain: EEEIRRRREELSDRLVALSELRRAARAALQALATDPSQVPATLAALEAAAAAVPELQPLVAAARAALAAGDREGLRATLEELIARAQRLAQEVLKEYEAL
B4: traf2_out_5_189_2320 (protein)
chain: SEREEEERRLRELAKRLAKEASELLNRLEKEGKSYEEIKEELLKRLEELSIEEANLYLGIAYAILLGRALAENDKELEKAAKEFRKEGLALIEERKKKAA
B5: traf2_out_16_104_1384 (protein)
chain: SAARDAEFDAIIARLEEIAERAQKIANELYKLYEKASPEEKEKLSDALVEVSEIRRRALEAAIAAREAREAGGDVAEARAALEELEKRLKEAEKKVKELK
B6: traf2_out_18_157_1818 (protein)
chain: MSDEELLELAKFAQEAADRFEDLVEELADASLEEFVEALEKLAKELIKEGKKFPKETVLDLLKRQARRAVRRWGERRGLSEEEVEEAVERVEEFIKKEIE
B7: traf2_out_18_3_1940 (protein)
chain: KEEKLKEVSEKIDEIIDEVTARAREALARLAAEHPEHAARAAALAADLEAGAGPFGILEELAELWREAGDEAAAAALEAFLAAKRKELQKLVDEYEKLRK
B8: traf2_out_12_187_954 (protein)
chain: SVKEELLKAAKEAYERAVKLLEKYAGEDPFVQELLEKLKELKELLEKHPEIAADFLVAASAIIRYMRLIEEGAPEEEIEAARKEAEKLLEEALKEAKKLE
B9: traf2_out_20_38_2012 (protein)
chain: SEEEKEKEKEEKLIEHANEAYDRAEAWVAALQAAGKSVAEIAAEAKKRIRELLTAHGLEEEAEELIEDVDRVLDSPDAERLIVQILARAETLVFQKELQK
B10: traf2_out_11_169_802 (protein)
chain: KEAEKNRKINDFALELNDEAKEKLKKFALELAKEAGLDVEEVKKIFEEHKNASLSEVAAALIKYFKSKGKEEVAKKILEKYEELKEEINEKGTKKIKELE
B11: traf2_out_20_3_2105 (protein)
chain: EELEREYEEELERAERLLEEAAELADPETAERLRELRERVRRSRELPYTDRLVELSEVRREVLRLAEEARAAGDEELARVLEEAAEELNEAMNLVMQIIE
B12: traf2_out_13_95_1225 (protein)
chain: SEETNEKLRKVSNDMLDKAEAVLEALAAELAPHPELQPAMAAIRAAFRNQGIRAAIAQLRAAAAAFPEVAAALDAAAAELEAIRREAGKKVAEILKEEEE
B13: traf2_out_16_104_1415 (protein)
chain: SAAAQAEFDAIIAGLEAIAERAGRLANRAYKLMETASPEDRVKLSDLLVEASELRREALAAAEAVRAARAAGGDLAEARATLAALEARLEALEKRLKELE
B14: traf2_out_11_169_786 (protein)
chain: EEKEKNRKYNDFALEKEDEAKKKLEEFALALAKEAGLDVEEVKKIFEENKGKSLSAIAAALIDYFKSKGNEAVAQAVLEKYEELKEEINKKSSEFLKELE
B15: traf2_out_20_3_2061 (protein)
chain: SELEKKLQEELDKALKLLKEAAKAADPETAKKLKELAKKLKASKELSYEDRLVELSEIRRELLELAEKAKAAGDEELAALLEEAADALNKAMQLTYEIIK
B16: traf2_out_11_131_656 (protein)
chain: MDAVAMAESAAERVDERLEIAKTLSPEERLRLARQSLDSLEALAEYLKEHVKEMSKEDVEKAAKILRESAEKILEFSPEVEEEAKEVEEAIKKLLEAAKA
B17: traf2_out_8_174_2562 (protein)
chain: SEREILKKAANLGLEYQNKIDEIKEKRKELEKKSLEEAVEYTEKEGKKLLEEIDKDAEEAKKTLDEETYKAVNRVLNSARTRTENLIKGTKIMAAAKKAA
B18: traf2_out_12_50_974 (protein)
chain: SEEEEEEEENEEFRKLAEEVEKKADEILEKTNGDPEKIIELAKEAAKKGLEELSLYVNAVRTIYTQRYIRGEKPEEWAKVLEEVEKILAEKEEKEEEEKK
B19: traf2_out_20_38_2010 (protein)
chain: SEEEKEKEKLEKLVEVANEAYDKYSAEFEKWKAEGKTVEEIAEEVKKRVKEKLSAAGLEEEAKILIEDIDLALSSPNAWRLLVRTLARADALVKQKELNK
B20: traf2_out_17_178_1744 (protein)
chain: SKEEILKKISEYADEMLDVSREAAERLREIAEREGVLTPELRRRLEEVARNSNLYAFEEVADEVIARTSSAEEVQKLKDETAAKLKELNKKIQELVEKYE
B21: traf2_out_18_117_1801 (protein)
chain: GEIEKAKKEFEKAVKAFEEVRTRAQRVAGQLIERHPHNLPQAATDAMVRFGEAKRRFNLLVQEAKENENDLEKLKKIVEEVKKLTEEMKAILAELEALLA
B22: traf2_out_8_15_2549 (protein)
chain: SIKEAAEKDIARLRALSDGDVESLINTLLGTAKAELRYAKILAEEGRKEEALRSLEAAEVYANAALELAKEAGSPNLEEIKKEVEKILKEIEKLKKEIKA
B23: traf2_out_9_108_2581 (protein)
chain: MSREEKLEEIFKKVLELVDEFKAENELTPEQRESLDAAIEQAEKLYEAGEKRTAIVLLAIDLARIASEVGEEALKKLLEKLKEIDPIAASAAERMAKLLK
B24: traf2_out_17_178_1709 (protein)
chain: TKEEARKKISEATDEMIDLARAAAARLLEIARREGSLSPEELAALERARRLGSARTTIALMRRAIPLLPSADEVRALLDDFEARYKELSKKIAEALKEYE
B25: traf2_out_18_167_1848 (protein)
chain: EEEIRAKREELSDRLVQLSEVKRAARAALQALDTDPATVPATLAKLEAAAASIPELQPLVAAAKAALAAGDREALRATLEALIAKAQALMNETLAEYEAL
B26: traf2_out_6_3_2529 (protein)
chain: SEEKLREDARTILENMGITTAEQLLRLVKAEVNAVKQLVSRPDVDRADLAGARSVLALTRAMVEVAAETLPSLTPEQAEEALALIDETEKLVEKREKELE
B27: traf2_out_18_117_1800 (protein)
chain: SALEKAQAEFEKTSKEFEEALSEAQRVATQLIEKYPKALPSEATDALVRFGEVKRKAAQLKQEAKANPNDLEKQKEIVEQLKKLLKEAKEIKEKLEEILK
B28: traf2_out_6_156_2414 (protein)
chain: MVEKIFEEAMKKIKEEIKKLAEASEEKKIQYISKIAGTAYRALQELREAGASLEEIEEFSKRLSEEAKKEAKKAGLPEDVINLLMSALNAVFDVAIAEAK
B29: traf2_out_19_16_1965 (protein)
chain: PEEELERLRRELEEIRREVEELERYFEENEETLTREELSDLLVRVSELKRRALEILQRLEELEPYDPEEVERLRREAEEVIRRAQRLMNRLVEKYEELLK

Molecular target: T1, TRAF2, Q12933
Experiment: median log2 fold change of GCK-ALFA target abundance (FLAG IP / Myc IP barcode read proportion) (log2 ratio); each designed protein is fused to an ALFA-tag nanobody in HEK293 cells to bring the named protein to FLAG-tagged glucokinase (GCK); Myc marks an untargeted standard; higher = target protein stabilised (more abundant)
Details: target protein: 3xFLAG-MCP-GCK-ALFA reporter; HEK293 landing pad (RPLP)
In short: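 Binders fused to an ALFA nanobody were recombined as a library into HEK293 landing-pad cells, which were induced with 2 μg mL^−1 doxycycline and then transfected to express a FLAG-tagged target and a Myc-tagged standard. After 48 h, circular RNA barcodes recovered by anti-FLAG and anti-Myc immunoprecipitation of lysates were reverse transcribed, amplified and sequenced. Each binder's target abundance is the median log2 ratio of FLAG to Myc barcode read proportions, from barcodes present at ≥10^−7 in both replicates, binders carrying ≥3 barcodes per replicate, a 10^−6 pseudocount and pooled replicates.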

Binder | median log2 fold change
B1 | 0.244
B2 | 0.126
B3 | 0.287
B4 | 0.109
B5 | 0.769
B6 | 0.132
B7 | 0.191
B8 | 0.306
B9 | 0.283
B10 | 0.34
B11 | 0.172
B12 | 0.0407
B13 | 0.3
B14 | 0.407
B15 | 0.112
B16 | 0.344
B17 | 0.234
B18 | 0.047
B19 | -1.49
B20 | 0.11
B21 | 0.222
B22 | 0.339
B23 | 0.147
B24 | -0.447
B25 | 0.169
B26 | -0.16
B27 | 0.246
B28 | -0.000683
B29 | 0.144
